We go through one molecule from PubChem BioAssay AID2060327 (Molecular Pharmacology Branch, DTP, NCI, 2025).

The source holds more than one record for some entries. The list is limited to them. The source may hold further records. Results that share an entry are repeated measurements in other runs, samples, wells, individuals or studies. Counts like (3×) give the number of equal values in this list.

The subject of the test is PC-3 multi-cell spheroids, viability. The test is described as follows: Anticancer human tumor PC-3 cell line growth inhibition [IpAb].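 Further: spheroids exposed to compounds for 7 days before readout; 100% = DMSO vehicle control wells.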 The settings on record: stronger effect = lower value. An excerpt: Combinatorial screen of targeted agents with ipatasertib and abemaciclib in multi-cell type tumor spheroids
A high-throughput screen of multi-cell type tumor spheroids was designed to identify active combinations of targeted small molecules and ipatasertib or abemaciclib. Complex spheroids include a stromal component modeled by human endothelial cells (HUVEC) and fibroblasts modeled by human mesenchymal stem cells (MSCs). The concentration ranges selected for each drug and investigational agent were based upon clinically achievable concentrations if the clinical Cmax of the agent was known.
Compounds. The drugs and investigational agents: ipatasertib (NSC767898), abemaciclib(NSC768073), selumetinib (NSC741078), trametinib (758246), adavosertib (NSC754352), everolimus (NSC733504), sapanisertib (NSC764658), vemurafenib (NSC761431), venetoclax (NSC766270), copanlisib (NSC809693), apelisib (NSC765974), palbociblib (NSC758247), vemurafenib (NSC761431), dabrafenib (NSC764134), ravoxertinib (NSC781343), BMS-387032 (NSC767048), sotorasib (NSC818433), talazoparib (NSC767125) and afursertib (NSC778305), were obtained from the National Cancer Institute (NCI) Developmental Therapeutics Program Chemical Repository. The FDA-approved anticancer drug set is available from the NCI Developmental Therapeutics Program. […] The stock solutions were prepared in dimethyl sulfoxide (DMSO, Sigma-Aldrich, St. Louis, MO, cat. D2650) at 800-fold the tested concentration and stored at -70 degrees C prior to their use. All drugs and investigational agents were tested over a range starting from a high concentration at or near the clinical Cmax and decreasing in half-log increments. If the clinical Cmax for an agent had not been determined, the highest concentration tested was 10 microM.
NCI60 Cell Culture. NCI60 cell lines were obtained from the NCI Developmental Therapeutics Program Tumor Repository. For each lot of cells, the Repository performed Applied Biosystems AmpFLSTR Identifiler testing with PCR amplification to confirm consistency with the published Identifier STR profile for each cell line. Cells were kept in continuous culture for no more than 20 passages. The optimal seeding densities for each of the cell lines at each time point assessed were determined prior to performing the concentration response studies. Briefly, the NCI60 human tumor lines were grown as monolayers in RPMI 1640 medium supplemented with 10% FBS and 2 mmol/L L-glutamine.
An additional 9 lines were from the NCI60 cell line panel including MDA-MB-231 breast carcinoma, MDA-MB-468 breast carcinoma, MCF7 breast carcinoma, Hs578T breast carcinoma, MALME-3M melanoma, SK-MEL-2 melanoma, SK-OV-3 ovarian carcinoma, DU-145 prostate carcinoma, PC-3 prostate carcinoma, all cell lines along with major genetic alterations are listed on Table 2. Pooled donor human umbilical vein endothelial cells (HUVEC, Lonza, cat. CC-2519) and human mesenchymal stem cells (hMSC, Lonza, cat. PT-2501) were purchased from Lonza (Walkersville, MD).
PDMR cell lines were grown in complete medium (DC medium): Dulbecco's modified Eagle's medium (DMEM)/F12 supplemented with 5% fetal bovine serum (FBS), 2 mM L-glutamine, 100 U/mL penicillin and 100 µg/ml streptomycin, 0.4 µg/ml hydrocortisone, 10 ng/ml epidermal growth factor (EGF) recombinant human protein, 24 µg/mL adenine, and 0.1 mg/mL primocin. During culture from frozen stock vials, PDMR cells were cultured in the same medium containing 10 µM Y-27632 (see Table 3). […]

As for `CCN1CCN(Cc2ccc(Nc3ncc(F)c(-c4cc(F)c5nc(C)n(C(C)C)c5c4)n3)nc2)CC1`, the viability, T/C runs as follows: (compound alone 0.01 µM) 94.9, 83.2, 87.2, 101, 97.5, 92.9, 73.9, 78.4, 74.6, 90.5, 89.8, 81.5, 82.5%; (compound alone 0.0316 µM) 69.9, 65.2, 67.4, 65.6, 59.3, 102, 54.7, 54.1, 51.7, 63.9, 58.4, 57.2, 59.2%; (compound alone 0.1 µM) 52.4 (2×), 53, 60.2, 56.1, 56, 133, 51.7, 53.3, 59, 55, 51, 58.2%; (compound alone 0.316 µM) 55.8, 56.9, 50.2, 65.6, 61.3, 159, 59.1, 57.3, 57.8, 66.3, 63.8, 62.5, 53.7%; (compound alone 1 µM) 57.7, 54.1, 63.5, 62, 61.6, 148, 57.3, 53.1, 48.9, 61.5, 54.5, 56.9, 45.6%.
